55 compounds from article PMC4336329 (PLoS ONE, 2015) can be followed below.

Among all 310,000 compounds or so, about 14,000 (4.5%) showed an effect of 50% or more. The effect is printed as a negative number. The list shows a part of the results.
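Also: peak tail current of the secondary pulse compared with the same well before compound.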

For the test, the target named is human ether-à-go-go-related gene (hERG) potassium channel (human, UniProt Q12809). The experiment in a line: primary screen, population patch clamp on CHO cells stably expressing hERG.
human ether-à-go-go-related gene (hERG) potassium channel, sequence (Q12809 whole entry, looked up): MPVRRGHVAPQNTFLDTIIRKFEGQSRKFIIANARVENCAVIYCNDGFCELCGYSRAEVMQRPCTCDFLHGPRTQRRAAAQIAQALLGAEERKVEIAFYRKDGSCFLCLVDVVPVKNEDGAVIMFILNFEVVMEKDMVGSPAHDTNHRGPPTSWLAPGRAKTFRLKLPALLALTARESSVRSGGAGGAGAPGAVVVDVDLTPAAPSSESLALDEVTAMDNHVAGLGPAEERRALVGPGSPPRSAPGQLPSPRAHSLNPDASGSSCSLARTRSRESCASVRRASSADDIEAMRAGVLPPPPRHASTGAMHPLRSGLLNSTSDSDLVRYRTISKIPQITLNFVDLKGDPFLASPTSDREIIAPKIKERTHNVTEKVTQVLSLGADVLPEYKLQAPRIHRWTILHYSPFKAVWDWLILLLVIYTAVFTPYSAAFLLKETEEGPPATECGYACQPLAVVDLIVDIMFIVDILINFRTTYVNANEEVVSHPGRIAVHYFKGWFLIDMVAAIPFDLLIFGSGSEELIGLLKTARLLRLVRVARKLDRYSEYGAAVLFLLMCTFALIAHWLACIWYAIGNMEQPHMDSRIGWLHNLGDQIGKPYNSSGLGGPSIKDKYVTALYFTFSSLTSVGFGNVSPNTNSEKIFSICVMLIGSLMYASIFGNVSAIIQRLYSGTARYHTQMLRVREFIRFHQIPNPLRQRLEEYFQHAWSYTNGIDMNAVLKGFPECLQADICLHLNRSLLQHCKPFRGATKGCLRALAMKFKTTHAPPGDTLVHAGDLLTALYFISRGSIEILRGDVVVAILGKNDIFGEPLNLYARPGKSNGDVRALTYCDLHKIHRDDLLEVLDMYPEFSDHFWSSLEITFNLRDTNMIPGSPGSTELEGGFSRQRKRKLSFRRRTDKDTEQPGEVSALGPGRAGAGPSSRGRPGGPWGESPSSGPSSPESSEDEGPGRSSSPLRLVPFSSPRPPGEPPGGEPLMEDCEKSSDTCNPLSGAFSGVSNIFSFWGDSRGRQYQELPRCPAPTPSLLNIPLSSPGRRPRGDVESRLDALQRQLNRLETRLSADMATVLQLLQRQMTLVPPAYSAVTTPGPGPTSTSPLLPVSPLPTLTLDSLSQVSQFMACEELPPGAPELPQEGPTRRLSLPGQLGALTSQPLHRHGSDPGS
With `COCCN(C(=O)c1csnn1)C(C(=O)NC1CCCCC1)c1ccccc1` (stereo not shown), the “hERG current change (%, negative = inhibition) at 10uM” value is recorded as 4.44%.
`COc1ccc(OC)c(C2c3[nH]c4ccccc4c3C[C@H]3C(=O)N(CCCOC(C)C)CC(=O)N23)c1` (stereo partly shown): the “hERG current change (%, negative = inhibition) at 10uM” value is given as -39.7%.
The same measure for `COc1ccc(NC2=CC(c3ccc(OC)cc3)N(c3ccc(OC)cc3)C2=O)cc1` (stereo not shown): 25.2%; for `Cc1ccc(C)c(N2CCN(S(=O)(=O)c3ccc4c(c3)OCCO4)CC2)c1`: 3.7%.
Take `Cc1ccc(NC(=O)Cn2c(=O)c(C)nc3ccccc32)cc1`: the “hERG current change (%, negative = inhibition) at 10uM” value came out at 14.1%.
The same measure for `CC1=C(C/C(C)=C/c2ccccc2)/C(=C/CO)[C@H](O)[C@](C)(O)C12CC2`: 11.3%; for `COc1ccc(NC(=O)CSc2ccc3nnc(CCNC(=O)c4ccccc4)n3n2)cc1OC`: 6.74%; for `O=C(c1ccco1)N1CCN(C(=O)N2CCCCC2)CC1`: -25.1%.
In the case of `Cc1ccc(C(=O)COC(=O)CCC(=O)Nc2cc(Cl)ccc2Cl)cc1[N+](=O)[O-]`, the “hERG current change (%, negative = inhibition) at 10uM” value was determined as 9.06%.
For `CNc1nc2c(C)cccn2c(=O)c1C=Nc1ccc(OC)cc1`, the “hERG current change (%, negative = inhibition) at 10uM” value is 11.8%.
To `O=S(=O)(Nc1nc2ccccc2nc1NCC1CCCO1)c1ccccc1` (stereo not shown) belongs 2.43%.
To `Cc1ccc(C(=O)NNC(=O)c2cc3cc4ccccc4nc3s2)cc1` belongs 1.36%.
For the compound `Cc1nnc(SCc2ccccc2Cl)n1CC1CCCO1` (stereo not shown), the “hERG current change (%, negative = inhibition) at 10uM” value is reported as -3.19%.
Regarding `Cc1ccc([N+](=O)[O-])cc1NC(=O)CSc1n[nH]c(-c2cccnc2)n1`, the “hERG current change (%, negative = inhibition) at 10uM” value was -18.9%.
To `O=C(CN(Cc1ccc2c(c1)OCO2)C(=O)CNS(=O)(=O)c1ccccc1)NCc1ccco1` belongs -22%; to `CC(C)(C(=O)Nc1nccs1)c1ccccc1`, -5.84%; to `CCC(CC)Nc1ccc(C(CC(N)=O)NC(=O)c2ccccc2)cc1[N+](=O)[O-]` (stereo not shown), -4.38%.
To `NC(=O)COC(=O)C12CC3CC(CC(O)(C3)C1)C2` belongs 5.8%; to `CCOC(=O)C1CCCN(c2oc(-c3ccc(F)cc3)nc2C#N)C1` (stereo not shown), -43.9%; to `Cn1c(=O)c2c(ncn2CC(=O)OCC(=O)NC2CCCc3ccccc32)n(C)c1=O` (stereo not shown), 2.36%.
As for `CC(C)NC(=O)c1c(O)c2cccc3c2n(c1=O)CCC3`, the “hERG current change (%, negative = inhibition) at 10uM” value came to 15.9%.
To `COCCn1nnnc1C(c1ccc2ncccc2c1)N1CCN(c2ccccc2F)CC1` (stereo not shown) belongs -19.4%; to `CCOC(=O)C1CCN(C(=O)CCS(=O)(=O)c2ccc3c(c2)CCN3C(=O)CC)CC1`, 4.01%; to `c1ccc(Cn2nnc3c(N4CCN(Cc5ccc6c(c5)OCO6)CC4)ncnc32)cc1`, -12.4%.
The same measure for `CCOc1cc2[nH]c(=S)n(CCc3ccc(OC)c(OC)c3)c(=O)c2cc1OCC`: -4.53%.
As to `O=C(Nc1cccc([N+](=O)[O-])c1)C1CCN(C(=O)Cc2ccccc2)CC1`, the “hERG current change (%, negative = inhibition) at 10uM” value is reported as -43.3%.
On to `O=C(/C=C/c1ccc([N+](=O)[O-])cc1)N1CCN(S(=O)(=O)c2cccs2)CC1`, for which the “hERG current change (%, negative = inhibition) at 10uM” value is listed as -18.7%.
In the case of `O=C(CCN1C(=O)[C@@H]2Cc3ccccc3CN2C1=O)N[C@@H](C(=O)O)c1ccccc1`, the “hERG current change (%, negative = inhibition) at 10uM” value worked out at 14.2%.
In the case of `O=C(Cc1ccc(F)cc1)Nc1nc(-c2ccc(F)cc2)cs1`, the “hERG current change (%, negative = inhibition) at 10uM” value came out at 32.8%.
With `CC(=O)Nc1cccc(Oc2ccc3c(c2)C(=O)N(CCC(=O)O)C3=O)c1`, the “hERG current change (%, negative = inhibition) at 10uM” value is 9.5%.
The same measure for `Cc1ccccc1C(=O)N1CCc2cc(-c3csc(NC(=O)CN4CCCC4)n3)ccc21`: 1.64%; for `O=C(NCCS(=O)(=O)N1CCN(c2ccccc2F)CC1)c1c(F)cccc1F`: -13%.
The same measure for `Cc1cccc(OCCCCNCc2ccccc2)c1.O=C(O)C(=O)O`: -38.1%; for `CCN(CC)CCN(C(=O)c1ccc(C(C)=O)cc1)c1nc2ccc(Cl)cc2s1.Cl`: -30.2%.
To `COc1ccc(Cl)cc1NC(=O)C1CC(c2c(F)cccc2Cl)=NO1` (stereo not shown) belongs 4.38%; to `Cc1csc(NC(=O)c2cnc3ccccc3n2)n1`, -19%; to `CCc1nnc(NC(=O)CSc2nccn2-c2cccc(C)c2C)s1`, 14.6%.
Turning to `Cc1ccc(NC(=O)C2=NNC(=O)CC2)cc1S(=O)(=O)Nc1ccc(SC(F)F)cc1`, the “hERG current change (%, negative = inhibition) at 10uM” value is on record as -15.9%.
The same measure for `COc1ccc(CN2CCCC(C(=O)N3CCCCC3)C2)cc1.O=C(O)C(=O)O` (stereo not shown): -8.21%; for `CCCC(=O)Nc1cc(=O)[nH]c2ncnn12`: 0.0505%; for `CCCn1c(C)cc(C(=O)CSc2nc3nc(C)cc(C)n3n2)c1C`: 6.97%.
As for `COc1ccc(C)cc1NC(=O)COC(=O)c1ccc([N+](=O)[O-])o1`, the “hERG current change (%, negative = inhibition) at 10uM” value stood at 10.1%.
For the compound `O=C(NCC1CCCN1S(=O)(=O)c1cccs1)c1c(F)cccc1F` (stereo not shown), the “hERG current change (%, negative = inhibition) at 10uM” value is on record as 8.8%.
Take `CC(=O)N(CCC1(C(C)C)CCOC(C)(C)C1)C(C)c1cccs1` (stereo not shown): the “hERG current change (%, negative = inhibition) at 10uM” value was -2.41%.
Consider `CC1(CC(=O)N/N=C/c2ccc(-c3ccc(C(=O)O)cc3)o2)OCCO1`, for which the “hERG current change (%, negative = inhibition) at 10uM” value is reported as -8.3%.
Turning to `CC(CO)Nc1nc(SCc2ccccc2)nc2sc3c(c12)CCC3` (stereo not shown), the “hERG current change (%, negative = inhibition) at 10uM” value was determined as 20.2%.
In the case of `Cc1ccc(C(C)NC(=S)NC2CCCCC2)cc1C` (stereo not shown), the “hERG current change (%, negative = inhibition) at 10uM” value amounted to 9.55%.
On to `COc1ccc(C(=O)NCC(=O)OCc2ccccc2F)cc1`, for which the “hERG current change (%, negative = inhibition) at 10uM” value is 1.5%.
Consider `Cc1cc(C)c(S(=O)(=O)N(CC(=O)N2CCOCC2)C2CCCCC2)c(C)c1`, for which the “hERG current change (%, negative = inhibition) at 10uM” value is listed as -21.9%.
In the case of `CCn1c(CN2CCN(c3ccc(Cl)cc3)CC2)nc2ccccc21`, the “hERG current change (%, negative = inhibition) at 10uM” value is listed as -55.3%.
For `Cc1nn(CC(=O)N2CCOCC2)c(=O)c2c1sc1ccccc12`, the “hERG current change (%, negative = inhibition) at 10uM” value was -24.7%.
Take `CCc1ccc(NC(=O)CCn2c(=O)oc3ccccc32)cc1`: the “hERG current change (%, negative = inhibition) at 10uM” value is listed as -10.1%.
For `O=C(NNC(=O)C1CCC1)c1cccc(Cl)c1`, the “hERG current change (%, negative = inhibition) at 10uM” value is listed as -5.52%.
Turning to `O=C(Nc1nc2c(F)cc(F)cc2s1)C1COc2ccccc2O1` (stereo not shown), the “hERG current change (%, negative = inhibition) at 10uM” value came out at 5.17%.
As for `COc1ccc(N(CC(=O)NCCSc2ccccc2)S(=O)(=O)c2ccccc2)cc1OC`, the “hERG current change (%, negative = inhibition) at 10uM” value was -6.45%.
